Values quoted from earlier work in patent publication US20170096636A1, “METHODS AND COMPOUNDS FOR PHOTOTHERAPY WITH CHALCOGENORHODAMINE PHOTOSENSITIZERS” (Wake Forest University Health Sciences, priority 2014, published 2017).

Tested on: MDCK-MDR1 cells
Conditions: cited from earlier work; for PBA: transport in secretory direction (basolateral to apical)
[1] = MDCK-MDR1 cells, thiorhodamine-treated and fully inhibited systems

In the case of `CN1CCC(C)(C)c2cc3c(-c4ccc(C(=S)N5CCCCC5)s4)c4ccc(=[N+](C)C)cc-4sc3cc21.F[P-](F)(F)(F)(F)F` [1-S—PF6], the “Ratio (+/−inhibitor) % Cell Associated Photosensitizer” value [1] is given as 1.8 and the PBA (MDCK-MDR1 cells) is given as 3.4 ×10⁻⁶ cm/s.

In the case of `CN1CCC(C)(C)c2cc3c(-c4ccc(C(=O)N5CCCCC5)s4)c4ccc(=[N+](C)C)cc-4sc3cc21.F[P-](F)(F)(F)(F)F` [2-S—PF6], the “Ratio (+/−inhibitor) % Cell Associated Photosensitizer” value [1] is listed as 5.2 and the PBA (MDCK-MDR1 cells) is listed as 23 ×10⁻⁶ cm/s.

For `CCN(CC)C(=S)c1ccc(-c2c3ccc(=[N+](C)C)cc-3sc3cc4c(cc23)C(C)(C)CCN4C)s1.F[P-](F)(F)(F)(F)F` [3-S—PF6], the “Ratio (+/−inhibitor) % Cell Associated Photosensitizer” value [1] is listed as 1.2 and the PBA (MDCK-MDR1 cells) is listed as 6.9 ×10⁻⁶ cm/s.

In the case of `CCN(CC)C(=O)c1ccc(-c2c3ccc(=[N+](C)C)cc-3sc3cc4c(cc23)C(C)(C)CCN4C)s1.F[P-](F)(F)(F)(F)F` [4-S—PF6], the “Ratio (+/−inhibitor) % Cell Associated Photosensitizer” value [1] is given as 3.3 and the PBA (MDCK-MDR1 cells) is given as 37 ×10⁻⁶ cm/s.

In the case of `CN(C)c1ccc2c(-c3ccc(C(=S)N4CCCCC4)s3)c3cc4c5c(c3[s+]c2c1)CCCN5CCC4.F[P-](F)(F)(F)(F)F` [5-S—PF6], the “Ratio (+/−inhibitor) % Cell Associated Photosensitizer” value [1] is listed as 2.1 and the PBA (MDCK-MDR1 cells) is listed as 8.3 ×10⁻⁶ cm/s.

For `CN(C)c1ccc2c(-c3ccc(C(=O)N4CCCCC4)s3)c3cc4c5c(c3[s+]c2c1)CCCN5CCC4.F[P-](F)(F)(F)(F)F` [6-S—PF6], the “Ratio (+/−inhibitor) % Cell Associated Photosensitizer” value [1] is given as 6.1 and the PBA (MDCK-MDR1 cells) is given as 22 ×10⁻⁶ cm/s.

For `CCN(CC)C(=S)c1ccc(-c2c3ccc(N(C)C)cc3[s+]c3c4c5c(cc23)CCCN5CCC4)s1.F[P-](F)(F)(F)(F)F` [7-S—PF6], the “Ratio (+/−inhibitor) % Cell Associated Photosensitizer” value [1] is given as 1.8 and the PBA (MDCK-MDR1 cells) is given as 6.5 ×10⁻⁶ cm/s.

In the case of `CCN(CC)C(=O)c1ccc(-c2c3ccc(N(C)C)cc3[s+]c3c4c5c(cc23)CCCN5CCC4)s1.F[P-](F)(F)(F)(F)F` [8-S—PF6], the “Ratio (+/−inhibitor) % Cell Associated Photosensitizer” value is given as 4.8.

Like-named read-outs stand apart in the source and are kept apart here.
